{
  "source": "PubChem BioAssay AID504332",
  "about": "(National Center for Advancing Translational Sciences (NCATS), 2011)",
  "note": "Among all 350,000 compounds or so, about 31,000 (8.9%) were called active. Inconclusive means that the source gave no clear call. Such entries were picked first, then a sample of the others. The call rests on the fitted dose curve; in most records, active means well fitted inhibition curve with a large enough effect; inconclusive means small, poorly fitted or top-dose-only effect; inactive means no such curve, though single readings can be large or run the other way. Potencies beside an inconclusive call are fits to weak or partial responses and may not hold up. On the % scale 0 is the no-effect control and ±100 the full control effect; potency means the concentration at half of the fitted maximal effect; tags describe the fitted curve by direction and shape.",
  "data": [
    {"target": "Histone-lysine N-methyltransferase EHMT2 (Homo sapiens) (UniProt Q96KQ7)", "sequence (Q96KQ7 whole entry, looked up)": "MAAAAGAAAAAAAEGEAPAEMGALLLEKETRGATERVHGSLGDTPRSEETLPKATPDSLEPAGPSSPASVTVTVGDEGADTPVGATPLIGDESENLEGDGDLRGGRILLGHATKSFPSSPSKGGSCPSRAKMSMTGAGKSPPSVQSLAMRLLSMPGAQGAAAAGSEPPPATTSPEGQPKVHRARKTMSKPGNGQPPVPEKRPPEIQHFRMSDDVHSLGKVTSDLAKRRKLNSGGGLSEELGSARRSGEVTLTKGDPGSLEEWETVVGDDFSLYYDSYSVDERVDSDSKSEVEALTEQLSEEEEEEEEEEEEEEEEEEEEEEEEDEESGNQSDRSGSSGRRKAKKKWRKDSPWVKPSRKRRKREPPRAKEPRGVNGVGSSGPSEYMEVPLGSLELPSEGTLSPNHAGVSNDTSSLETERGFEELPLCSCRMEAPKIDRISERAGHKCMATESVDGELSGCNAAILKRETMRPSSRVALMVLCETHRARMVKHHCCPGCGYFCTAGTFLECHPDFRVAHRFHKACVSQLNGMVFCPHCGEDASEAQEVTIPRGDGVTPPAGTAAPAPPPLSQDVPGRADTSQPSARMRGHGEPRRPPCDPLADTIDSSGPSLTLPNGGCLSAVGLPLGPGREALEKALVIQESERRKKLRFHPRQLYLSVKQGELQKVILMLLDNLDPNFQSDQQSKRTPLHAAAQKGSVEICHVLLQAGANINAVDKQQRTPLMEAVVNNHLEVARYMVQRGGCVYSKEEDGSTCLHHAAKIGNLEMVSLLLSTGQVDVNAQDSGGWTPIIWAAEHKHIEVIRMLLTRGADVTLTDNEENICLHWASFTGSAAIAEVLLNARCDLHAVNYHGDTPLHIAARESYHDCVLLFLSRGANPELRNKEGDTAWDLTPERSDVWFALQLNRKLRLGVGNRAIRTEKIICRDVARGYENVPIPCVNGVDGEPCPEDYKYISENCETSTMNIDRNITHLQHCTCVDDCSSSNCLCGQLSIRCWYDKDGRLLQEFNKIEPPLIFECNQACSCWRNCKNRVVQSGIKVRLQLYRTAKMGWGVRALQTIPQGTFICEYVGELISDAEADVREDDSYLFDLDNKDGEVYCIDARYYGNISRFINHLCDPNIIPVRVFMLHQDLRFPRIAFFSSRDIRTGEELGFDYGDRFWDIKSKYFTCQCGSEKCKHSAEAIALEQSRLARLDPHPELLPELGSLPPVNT", "assay": "qHTS Assay for Inhibitors of Histone Lysine Methyltransferase G9a; further: nearly all actives have a fitted effect of over 75% in size", "settings": "G9a H3K9 monomethylation, AlphaScreen, 2 h; activity, negative = inhibition: at 59 µM (top of the series) unless noted", "outline": "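Using a bead-based AlphaScreen, monomethylated H3K9 product from 2 h room-temperature reactions (G9a 20 nM, peptide 500 nM, SAM 20 uM) was detected with 0.5 ug/mL rabbit anti-H3K9me1 antibody.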", "values": [
      {"compound": "COc1ccc(CNc2nc(-c3ccc(Cl)cc3)nn2C(=O)c2ccccc2)cc1", "activity, negative = inhibition": "inactive: 9.43%"},
      {"compound": "O=C(O)CCC(C(=O)O)n1c(O)c(C2=c3ccccc3=NC2=O)sc1=S", "note": "(stereo not given)", "activity, negative = inhibition": "inconclusive: -72.9% [inhibitor]"},
      {"compound": "O=C(NCCN1CCCC1)c1ccc(Cl)cc1", "Potency": "inconclusive: 0.251 µM [inhibitor, partial curve, poor fit]"},
      {"compound": "CC(=O)Nc1ccc(NC(=O)CCCn2cnc3ccccc3c2=O)cc1", "Potency": "inconclusive: 89.1 µM [inhibitor, single point]"},
      {"compound": "Cc1cc(C)cc(-n2c(C)cc(/C=C3\\C(=N)N4N=C(CC(C)C)SC4=NC3=O)c2C)c1", "activity, negative = inhibition": "inactive: 5.67%"},
      {"compound": "O=S(=O)(c1cccc(NC(=S)NCc2ccco2)c1)N1CCOCC1", "Potency": "inconclusive: 39.8 µM [inhibitor, single point]"},
      {"compound": "CCOC(=O)C1CCCN(Cc2cccc(Oc3ccccc3)c2)C1", "note": "(stereo not given)", "Potency": "active: 79.4 µM"},
      {"compound": "CCc1ccc(OCC(=O)Nc2ccc(N3CCN(S(C)(=O)=O)CC3)cc2)cc1", "Potency": "active: 79.4 µM"},
      {"compound": "CCC(=O)Oc1ccc(C(CC)C(CC)c2ccc(OC(=O)CC)cc2)cc1", "note": "(stereo not given)", "activity, negative = inhibition": "inactive: 6.72% [at 102 µM]"},
      {"compound": "CCSc1nc(C)c(C)c(=O)[nH]1", "Potency": "inconclusive: 89.1 µM [inhibitor, single point]"},
      {"compound": "O=C(c1ccco1)N1CCN(CCOCCOc2cccc3ccccc23)CC1", "Potency": "inconclusive: 89.1 µM [inhibitor, single point]"},
      {"compound": "O=C1/C(=C\\c2ccc(Br)o2)Cc2ccccc21", "Potency": "inconclusive: 35.5 µM [inhibitor, single point]"},
      {"compound": "Cc1cc(C)cc(N2C(=O)CS(=O)(=O)C23C(=O)N(C)c2ccccc23)c1", "note": "(stereo not given)", "Potency": "inconclusive: 7.94 µM [inhibitor, partial curve, poor fit]"},
      {"compound": "Cc1nc(-c2ccc(S(=O)(=O)N(C)Cc3ccccc3)cc2)co1", "activity, negative = inhibition": "inactive: -2.28%"},
      {"compound": "O=C(Nc1ccccc1N1CCCCC1)c1ccc2nccnc2c1", "activity, negative = inhibition": "inactive: -42%"},
      {"compound": "COc1ccc(-c2c/c(=N\\c3nc(-c4ccccc4)c(C)s3)c3ccccc3o2)cc1O", "Potency": "inconclusive: 35.5 µM [inhibitor, single point]"},
      {"compound": "CCOC(=O)c1c(NC(=O)CC2Nc3cc(C)c(C)cc3NC2=O)sc(C)c1C", "note": "(stereo not given)", "Potency": "inconclusive: 28.2 µM [inhibitor, single point]"},
      {"compound": "C=CCn1c(SCC(=O)NC2CCCC2)nc2scc(-c3ccco3)c2c1=O", "activity, negative = inhibition": "inconclusive: -80.3% [inhibitor]"},
      {"compound": "CN1CCN(S(=O)(=O)c2ccc(Br)c3nsnc23)CC1", "Potency": "inconclusive: 39.8 µM [inhibitor, partial curve, poor fit]"},
      {"compound": "CN1CCN(C=Nc2nc3ccccc3nc2N2CCCC2)CC1", "Potency": "inconclusive: 50.1 µM [inhibitor, partial curve, poor fit]"},
      {"compound": "Cc1onc(-c2ccccc2)c1C(=O)NC(=S)NNC(=O)c1cc(-c2ccc(F)cc2)n[nH]1", "Potency": "active: 50.1 µM"},
      {"compound": "COc1ccc(S(=O)(=O)NCCSCc2cccs2)cc1", "Potency": "inconclusive: 15.8 µM [inhibitor, single point]"},
      {"compound": "CC(=O)/C(N)=N/Nc1cccc(Cl)c1", "Potency": "active: 50.1 µM"},
      {"compound": "Cc1cccc(C)c1OCCN1CCOCC1", "Potency": "active: 11.2 µM"},
      {"compound": "CCCCSc1nnc2c(n1)[nH]c1ccccc12", "activity, negative = inhibition": "inactive: -2.65% [at 12.7 µM]"},
      {"compound": "COc1ccc(C(c2nnnn2C(C)(C)C)N2CCN(C)CC2)cc1OC", "note": "(stereo not given)", "Potency": "inconclusive: 79.4 µM [inhibitor, partial curve, poor fit]"},
      {"compound": "COc1ccc(CCNC(=O)C2CCN(Cc3nc(-c4ccccc4C)oc3C)CC2)cc1OC", "Potency": "inconclusive: 79.4 µM [inhibitor, partial curve, poor fit]"},
      {"compound": "N#Cc1cccc(-c2ccc3ncnc(NC4CCNCC4)c3c2)c1", "activity, negative = inhibition": "inactive: 7.89% [at 0.501 µM]"},
      {"compound": "COc1ccc(N(CC(=O)NCCc2ccccc2)C(=O)CCC(=O)Nc2nccs2)cc1", "Potency": "active: 56.2 µM"},
      {"compound": "COc1ccc(-c2cc(C3CCN(c4ncccc4[N+](=O)[O-])CC3)[nH]n2)cc1", "Potency": "active: 50.1 µM"},
      {"compound": "O=C(CSCc1ccc(Cl)cc1)N1CCN(Cc2ccc3c(c2)OCO3)CC1", "Potency": "inconclusive: 39.8 µM [inhibitor, single point]"},
      {"compound": "CN(C)CCCN(C(=O)c1ccc(C(=O)c2ccccc2)cc1)c1nc2ccc(F)cc2s1", "Potency": "inconclusive: 63.1 µM [inhibitor, single point]"},
      {"compound": "COc1ccc(-c2cc(C(F)(F)F)nc(SCCC(=O)Nc3ccc(O)cc3)n2)cc1", "activity, negative = inhibition": "inactive: 2.54%"},
      {"compound": "CN(C)S(=O)(=O)c1cc(NC(=O)CN2CCc3ccccc32)ccc1Cl", "Potency": "active: 15.8 µM"},
      {"compound": "CCOC(=O)Cn1nc(C)c(NC(=O)COc2ccc(C)c(C)c2)c1C", "Potency": "inactive"},
      {"compound": "N#Cc1c(N)nc2c(c1N)CC(COc1ccccc1)O2", "note": "(stereo not given)", "Potency": "inconclusive: 89.1 µM [inhibitor, single point]"},
      {"compound": "COc1ccc2c(c1)cc(C(O)c1ccccn1)n2S(=O)(=O)c1ccccc1", "note": "(stereo not given)", "Potency": "inconclusive: 89.1 µM [inhibitor, single point]"},
      {"compound": "COC(=O)N/N=C/c1cc(OC)c(O)c([N+](=O)[O-])c1", "Potency": "inconclusive: 39.8 µM [inhibitor, single point]"},
      {"compound": "CCn1cc(C(=O)N2CC(C)CC(C)C2)c(=O)c2cc(S(=O)(=O)N3CCCC3)ccc21", "note": "(stereo not given)", "activity, negative = inhibition": "inactive: 12.6% [at 102 µM]"},
      {"compound": "CC(C)(C)c1ccc(NC(=O)COC(=O)c2ccc(NS(=O)(=O)c3ccc(F)c(F)c3)cc2)cc1", "Potency": "inconclusive: 100 µM [inhibitor, single point]"},
      {"compound": "O=S(=O)(Nc1cccc(-c2ccc(N3CCOCC3)nn2)c1)c1cc(Cl)ccc1Cl", "Potency": "inconclusive: 89.1 µM [inhibitor, partial curve, poor fit]"},
      {"compound": "Cc1ccc(NC(=O)COc2coc(CN3CCc4ccccc4C3)cc2=O)c(C)c1", "Potency": "active: 50.1 µM"},
      {"compound": "O=C(Nc1ccccc1)c1cccc(S(=O)(=O)N2CCCCC2)c1", "Potency": "inconclusive: 20 µM [inhibitor, single point]"},
      {"compound": "COc1ccc(/C=C/c2nc(C#N)c(N3CCCCCC3)o2)cc1OC", "Potency": "inconclusive: 39.8 µM [inhibitor, single point]"},
      {"compound": "COc1cc(NC(=O)CSc2nnc3c(n2)[nH]c2ccc(S(=O)(=O)NC(C)C)cc23)cc(OC)c1OC", "Potency": "inconclusive: 50.1 µM [inhibitor, partial curve]"}
    ]}
  ]
}
